Experimental data: the supplement of paper PMC11417369
This is one part of the list.

The sequences below were run on PfAP2-HC AP2 domain (GST-tagged) (assay: gcPBM binding intensity (ln(normalized median fluorescence intensity)); higher = stronger DNA binding).
Outline: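 The highest Masliner-normalised natural-log median intensity across replicate spots of either probe orientation is reported as binding intensity. GST-tagged P. falciparum DNA-binding domains expressed in E. coli were applied for 1 h to an Agilent 4 × 180k array of primer-extended double-stranded 36-bp intergenic genomic probes plus negative controls, and bound protein was detected with Alexa488 anti-GST antibody and scanned at 488 nm.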

Sequence | gcPBM binding intensity (ln)
TCTTTCTGCTCTTATACACACAAATAAAGATTTTTT [CACACA_site2700] | 9.85
ATGAAATTTTCATATTGTACTATTAAAAATATATTT [XGTACX_site1989] | 9.41
AATAAATATTAAATGACAAAAAAAAAAAAAAAAGGG [XGTACX_negctrl_site15] | 9.92
TATAATCCATAAGAAGCACACACATATATATATATT [CACACA_site8394] | 10.4
TTAAGATGCATAAATACATGCAAAGTAAATAATTCT [TGCATGCA_site517] | 9.79
TTAGCAGGACGTTTGGTGCACGTACTGTTTTTCTTT [GTGCAC_site9856] | 9.53
ATTATAAGAATTAAAAGAAACAAAATTTTAATTATA [CACACA_negctrl_site610] | 9.49
TAAGATCCTTAAAACGCATGCAGTATTTTTATTTCT [TGCATGCA_site532] | 9.59
TAGCCAAAAGGATATGCACACACACCCACATATATA [CACACA_site8684] | 10.1
CATATAATTATTTTCACACATATAACTACATCTATA [CACACA_site5915] | 9.74
CTTTTACGTTTAGGATGTACATTTAAAAAAAAAGAA [XGTACX_site8032] | 9.43
ATATAAATAAAAAAAAGTACATAATATATAAAAATA [XGTACX_site3065] | 9.8
TTTCTTAAAATATAAAGTACTAAAATGAAAATATAT [XGTACX_site2173] | 9.38
AAATAAAGAAATATATGTACATATATATATATATAT [XGTACX_site5131] | 10.4
AAAAAAAAAAAAAACACACACACACGCAGATATATA [CACACA_site6672] | 10.5
TTTATTCTCCACACCCGTACACATTTTTTTTGCATA [XGTACX_site5615] | 9.93
ATTATAGACAACTCTTTTTCTAAACTATTTTATTTT [CACACA_negctrl_site1754] | 9.98
CATAATATTTGTGAAAGTACTTATTTTACAATAGGG [XGTACX_site5004] | 9.55
TTTTCTATAAGATTTGCACACAACTTATTCTATTAA [CACACA_site3752] | 9.94
ATAAATAAATAAATAAATATATATATGAAATAATGT [TGCATGCA_negctrl_site12] | 9.83
CTTCTTTTGTGATAAAGTACAAATATTTTGAAATAT [XGTACX_site1156] | 9.38
AAAAAATATAAAACGAGTACATATATAATAAGCAAA [XGTACX_site1360] | 9.84
ATTTCTTTTACATTTACATGCAATGCTCTATAGATA [TGCATGCA_site62] | 9.74

Sequence | gcPBM binding intensity (ln)
AAAGAATTTGCATATACACACAAAAAAATAAATACA [CACACA_site4373] | 10.1
ATTTTTTTTATGTATTATGCTTTTATATCCTTCATA [CACACA_negctrl_site1244] | 9.78
AATATAATATAATGCACACATAAAAAAAAAAAAATC [CACACA_site1303] | 9.98
GCTAAACAATAGTTTGCACACAATTTAAATATATAT [CACACA_site193] | 10
AATGCACTATTTAAAAGTACACATAAGAAAAGCATA [XGTACX_site1739] | 9.62
AGTATAAATATATTATGTACATATATATTATACTTA [XGTACX_site2623] | 9.53
TTATATACATTAAATGAACACACATAAATAAATTAC [CACACA_site8927] | 9.88
ATATATATATACATATGTACATATATATTTATACAT [XGTACX_site2463] | 9.81
AATACAATTTATAACACACACACAAGAATACCTATA [CACACA_site6705] | 11.1
TCTTTTTAAGGGATTTTTTTTTTTTTTTTAAAAAGA [CACACA_negctrl_site1274] | 9
TTTGTATCTATATATTGTACGAATTACTTTCATTTA [XGTACX_site4785] | 9.9
TATACATACATTAGACGTACACATTTTACCTACACC [XGTACX_site3586] | 9.87
TTTTTTGTATTTTTCACACACACATAAGTAAACAAT [CACACA_site1900] | 10.2
TATTATGTATGTATATGTACGTATCTTATTTTATTT [XGTACX_site5008] | 9.94
AAATTATTATATATATGTACGTATAATGTATTTTGT [XGTACX_site2903] | 9.8
AAATATAGAATACATGTGCACATAATATATATATAT | 10
AAATGTAAATTTATCCGTACATATATATATTTATAT [XGTACX_site7024] | 9.73
AAAAAAAAAAAAATATATATATATATATATATATAT [GTGCAC_negctrl_site212] | 9.44
AAAAAAAAAAATTAAAGTACAAAAATATTAAAAATA [XGTACX_site6517] | 9.62
TGCATTTATATCTTCACACATATATATATATATATA [CACACA_site4516] | 9.66
ATTAAAAATTCAATTGCACACGCACATATTTTAATA [CACACA_site8618] | 9.95
ATGTAATAAAATAATTGTACAATGTAACTAATTTTT [XGTACX_site2871] | 9.92
ATATGTATATATACATGTACATATTTTTCCTTTCTT [XGTACX_site149] | 9.65

Sequence | gcPBM binding intensity (ln)
ATAAACATGGAAATGTATTAAAAGCAAGTATATAAA [XGTACX_negctrl_site516] | 9.93
TGTTGTTACAGATATACACACATATATATATTATAT [CACACA_site5342] | 9.96
TTGGGTGCATATATTTGTACACATTATTTCTATTTT [XGTACX_site3688] | 9.69
TAAATTATAACGTGCACACATATTTAAAATGAAATG [CACACA_site2820] | 9.73
AAAAAAAATTTCTTCACACATAAATAAATAAATAAA [CACACA_site4841] | 9.36
TTTTTTTTTTTTTCAAGTACATATATATATATATAA [XGTACX_site2098] | 9.18
TTTTTATATGTTAAGTGTACGTTTACATTTTATACT [XGTACX_site3485] | 9.75
ACATAAATAAATTAATGTACATATATATTTGTATAT [XGTACX_site3160] | 9.68
TATATATATATATATACACACACACCCATATATATA [CACACA_site8812] | 10.3
TTTGTATAATACATGTGTACGTATTTTTATATAAAT [XGTACX_site8656] | 9.73
TTATCATTATATAGTTGTACATATTTATTTATAAAA [XGTACX_site2310] | 9.49
AGAACTAAAAGAACATGTACATAAATTCTAAATAAT [XGTACX_site4084] | 9.71
ATGATACTAAAAAATTGTACATATAACAAAAGGTAT [XGTACX_site2527] | 9.76
CATATATTTTGAAACACACACATATATAATATACAT [CACACA_site1158] | 10.4
ATAACAAAATGAAGAGTGCATTACCAAGTGGGTAAA [GTGCAC_site9450] | 9.89
ATATTTAAGGCGTGTATGCACACGACTATTCCGTAT [CACACA_site1080] | 9.79
TTAATTTGTTCTTACACACACATATAAATATATTTA [CACACA_site6676] | 9.92
TATTTTGTTTTAAAAGTACACACTTTTAATTAGATT [CACACA_site1180] | 9.51
AATATATATACTATAACACACATACACCCAAAAAAA [CACACA_site4453] | 10.2
TTATATGGATATACAGTGCATATATACATATAAGTG | 9.69
CATACCTTTTAATGTACACACATTTCTTTTTTGTTA [CACACA_site892] | 10
AAAAAAAAAAGAAACACACACATATATATATAGAAT [CACACA_site1777] | 10.3
ATGTATTAAAATTTATGTACTTATATATAAATATAT [XGTACX_site1025] | 9.62

Sequence | gcPBM binding intensity (ln)
TATATGTATTTGTATACACACAAATGTATATATTTA [CACACA_site1265] | 9.73
TATAAACATAATATTTAACACACATGAAGATGTATA [CACACA_site8252] | 9.73
ATTATTATATATGTATGTACTTATATAATATATATA [XGTACX_site5198] | 9.46
TATATATTGTTATATACACACATGTATTTAAAAAAT [CACACA_site5737] | 9.65
TTAACAAAACATAAGGTGCTTAAAATTTTATATCAC [GTGCAC_site9839] | 9.53
TCTGTTAAACAAAAAAGTACTAAAATAATGTAAAAT [XGTACX_site6826] | 9.58
TACCTATATAGACACACACACATATATTTATTTATA [CACACA_site6728] | 10.4
ATATGTACAAGTGTTTATGCTGAACGGAAATCCTGT [CACACA_negctrl_site1372] | 9.69
CGCACAGACGGACACACACACACATATATATATATA [CACACA_site5249] | 11.1
TTTTTTTTTATATAAAAAAAAATTTTTATTATTTTA [GTGCAC_negctrl_site347] | 9.24
ATAATTGTCCATTTTTTCTTTTTTTTTTTCTTTTTA [CACACA_negctrl_site928] | 9.68
TTCTCCTAATAGTTAGTGCACTACATAACTAAGAAA | 9.48
AAAAAAAAAAAAAAAACACACATTTAGCAATCTACA [CACACA_site3706] | 9.6
TACATATATTATACATGTACACATTTATACATATCG [XGTACX_site2866] | 9.84
ATATGATCATACTGTGCATGTTAATGCAAATTTTAT [TGCATGCA_site984] | 9.75
TTAATATAATAAAATCGTACAAATAAAATATAAAAT [XGTACX_site8730] | 9.73
AAAAATGAGAAACACACACACATATATATATATATA [CACACA_site2228] | 10.1
TCTTTAAATCGAGTGTTAAATAATATAATATAAAAA [CACACA_negctrl_site1507] | 9.34
AACCAATATGAGTATACACACATAAATATAAATATA [CACACA_site5968] | 10.1
AAAAAAAAAAAAGATACACACAAAAATGGATATATA [CACACA_site7069] | 9.9
